Structures can show the parent of a compound that is named as a salt. The full ranking holds about 2,000 compounds; the median of “fractional viability relative to vehicle” is about 0.92, and the lowest 2% start at about 0.11. This is one part of the list.
System: TYKNU
Experiment: fractional viability relative to vehicle; TYKNU is a high-grade serous ovarian cancer line; higher = less growth inhibition
Conditions: 72 h, genotype: OPA1 knockout (sgOPA1 #2)
How it was run: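 Drug treatment lasted 72 h, with cells grown at 37 °C in 5% CO2 in RPMI 1640 supplemented with 10% FBS. Beforehand, TYKNU control cells or their lentiCRISPRv2 knockout derivatives had been seeded at 500 cells per well into drug-stamped 384-well plates carrying a ~2100-compound library at 2 or 10 μM, in duplicate. Viability came from Cell Titer Glo luminescence, with averaged duplicate treatment wells normalised to duplicate control wells in the same plate position.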

OC[C@@H](O)[C@@H](O)[C@H](O)[C@H](O)CO [D-Mannitol]
fractional viability (2uM): 0.994
fractional viability (10uM): 0.801

C[C@H](NCc1ccc(OCc2cccc(F)c2)cc1)C(N)=O [Safinamide Mesylate]
fractional viability (2uM): 1.13
fractional viability (10uM): 1.11

CC(=O)OCC(=O)NCCCOc1cccc(CN2CCCCC2)c1 [Roxatidine Acetate HCl]
fractional viability (2uM): 0.975
fractional viability (10uM): 1.19

CCn1cc(C(=O)O)c(=O)c2cc(F)c(N3CCNCC3)nc21 [Enoxacin]
fractional viability (2uM): 1.01
fractional viability (10uM): 0.993

CC(C(=O)O)c1cccc(Oc2ccccc2)c1 (configuration not stated) [Fenoprofen Calcium]
fractional viability (2uM): 1.21
fractional viability (10uM): 1.04

CC(C(=O)O)c1cccc(Oc2ccccc2)c1 (configuration not stated) [Fenoprofen calcium hydrate]
fractional viability (2uM): 0.951
fractional viability (10uM): 0.994

COCCOc1nc(-c2ccc(Cl)c(Cl)c2)n(-c2ccc(NC(=O)CCl)cc2)n1 [MI-2 (MALT1 inhibitor)]
fractional viability (2uM): 1
fractional viability (10uM): 0.952

OC[C@H]1OC(O)[C@H](O)[C@@H](O)[C@@H]1O (some centres not stated) [Dextrose]
fractional viability (2uM): 0.997
fractional viability (10uM): 0.94

O=C1NC(=O)C(c2ccccc2[N+](=O)[O-])=C1Nc1ccc(O)c(Cl)c1
fractional viability (2uM): 1.03
fractional viability (10uM): 1.01

O=C1NC(=O)/C(=C/c2ccc3nccc(-c4ccncc4)c3c2)S1
fractional viability (2uM): 0.755
fractional viability (10uM): 0.435

CCCc1ncc(C[n+]2ccccc2C)c(N)n1 [Amprolium HCl]
fractional viability (2uM): 1.07
fractional viability (10uM): 0.94

CCCCCOc1ccc(-c2ccc(-c3ccc(C(=O)N[C@H]4C[C@@H](O)[C@@H](O)NC(=O)[C@@H]5[C@@H](O)[C@@H](C)CN5C(=O)[C@H]([C@@H](C)O)NC(=O)[C@H]([C@H](O)[C@@H](O)c5ccc(O)cc5)NC(=O)[C@@H]5C[C@@H](O)CN5C(=O)[C@H]([C@@H](C)O)NC4=O)cc3)cc2)cc1
fractional viability (2uM): 1.02
fractional viability (10uM): 0.857

CC(C)c1nc(N(C)S(C)(=O)=O)nc(-c2ccc(F)cc2)c1/C=C/[C@@H](O)C[C@@H](O)CC(=O)O [Rosuvastatin Calcium]
fractional viability (2uM): 1.06
fractional viability (10uM): 1.07

O=C(COc1cccc2c(=O)[nH]ccc12)c1ccccc1
fractional viability (2uM): 0.81
fractional viability (10uM): 1.01

CCNC(=O)[C@H]1O[C@@H](n2cnc3c(N)nc(NCCc4ccc(CCC(=O)O)cc4)nc32)[C@H](O)[C@@H]1O
fractional viability (2uM): 1.09
fractional viability (10uM): 1.13

CS(=O)(=O)c1ccc([C@@H](O)[C@@H](CF)NC(=O)C(Cl)Cl)cc1 [Florfenicol]
fractional viability (2uM): 1.1
fractional viability (10uM): 1.35

CC(C)OC(=O)C(C(=O)OC(C)C)=C1SC=CS1 [Malotilate]
fractional viability (2uM): 1.18
fractional viability (10uM): 0.94

CC[C@]12C=CCN3CC[C@@]4(c5cc([C@@]6(C(=O)OC)C[C@@H]7C[C@@H](C(C)(F)F)CN(Cc8c6[nH]c6ccccc86)C7)c(OC)cc5N(C)[C@H]4[C@@](O)(C(=O)OC)[C@@H]1OC(C)=O)[C@@H]32 [Vinflunine Tartrate]
fractional viability (2uM): 0.331
fractional viability (10uM): 0.328

c1ccc2c(c1)CCCC2C1=NCCN1 (configuration not stated) [Tetrahydrozoline HCl]
fractional viability (2uM): 1.01
fractional viability (10uM): 0.817

C=C(C)[C@@H]1CC[C@]2(C(=O)O)CC[C@]3(C)[C@H](CC[C@@H]4[C@@]5(C)CC[C@H](O)C(C)(C)[C@@H]5CC[C@]43C)[C@@H]12 [Betulinic acid]
fractional viability (2uM): 0.916
fractional viability (10uM): 0.979

O=C(O)C1=C[C@@H](O)[C@@H](O)[C@H](O)C1 [Shikimic Acid]
fractional viability (2uM): 1.04
fractional viability (10uM): 0.875

C1N2CN3CN1CN(C2)C3 [Methenamine]
fractional viability (2uM): 1.11
fractional viability (10uM): 0.862

CC1(C)CCC(c2ccc(Cl)cc2)=C(CN2CCN(c3ccc(C(=O)NS(=O)(=O)c4ccc(N[C@H](CCN5CCOCC5)CSc5ccccc5)c(S(=O)(=O)C(F)(F)F)c4)cc3)CC2)C1 [ABT-263 (Navitoclax)]
fractional viability (2uM): 0.857
fractional viability (10uM): 0.555

O=C(COc1ccc(C(=O)c2ccccc2)cc1)NC1CCN(Cc2ccccc2)CC1 [AdipoRon]
fractional viability (2uM): 0.858
fractional viability (10uM): 0.828

CCOC(=O)N1CCC(=C2c3ccc(Cl)cc3CCc3cccnc32)CC1 [Loratadine]
fractional viability (2uM): 0.977
fractional viability (10uM): 0.79

Nc1nc(F)nc2c1ncn2[C@@H]1O[C@H](COP(=O)(O)O)[C@@H](O)[C@@H]1O [Fludarabine Phosphate]
fractional viability (2uM): 0.545
fractional viability (10uM): 0.255

O=C(NOCC1CC1)c1ccc(F)c(F)c1Nc1ccc(I)cc1Cl
fractional viability (2uM): 0.943
fractional viability (10uM): 0.483

CN1CCN(S(=O)(=O)c2ccc(-c3cnc(N)c(C(=O)Nc4cccnc4)n3)cc2)CC1
fractional viability (2uM): 1.07
fractional viability (10uM): 0.554

COc1ccc(-c2coc3cc(O)ccc3c2=O)cc1 [Formononetin]
fractional viability (2uM): 0.839
fractional viability (10uM): 0.875

CNc1nc(-c2ccc3c(N)n[nH]c3c2)cc(N2C[C@@H](C(=O)NC3CCCCC3)CC[C@H]2C)n1
fractional viability (2uM): 0.828
fractional viability (10uM): 0.571

Oc1c(Br)cc(Br)c2cccnc12 [Broxyquinoline]
fractional viability (2uM): 0.901
fractional viability (10uM): 0.487

Nc1ccc2ncnc(NCCc3ccc(Oc4ccccc4)cc3)c2c1
fractional viability (2uM): 1.03
fractional viability (10uM): 0.964

Cc1ccc2c(c1)C(=O)C1(O)CCN(c3ccccc3)C1=N2 (single isomer, unassigned; (-)) [(-)-Blebbistatin]
fractional viability (2uM): 0.984
fractional viability (10uM): 0.834

CC(C)C[C@H](NC(=O)[C@H](Cc1ccccc1)NC(=O)c1cnccn1)B(O)O [Bortezomib (PS-341)]
fractional viability (2uM): 0.324
fractional viability (10uM): 0.257

COc1ccc(CC(C)NCC(O)c2ccc(O)c(NC=O)c2)cc1 (configuration not stated) [Formoterol Hemifumarate]
fractional viability (2uM): 0.939
fractional viability (10uM): 0.897

CS(=O)(=O)c1ccc(C(=O)Nc2ccc(Cl)c(-c3ccccn3)c2)c(Cl)c1 [Vismodegib (GDC-0449)]
fractional viability (2uM): 1.13
fractional viability (10uM): 1.11

NC(=O)N1CCC(CC(=O)N2CCC([C@H]3c4ncc(Br)cc4CCc4cc(Cl)cc(Br)c43)CC2)CC1 [Lonafarnib]
fractional viability (2uM): 0.821
fractional viability (10uM): 0.583

C[C@H](N[C@@H](CCc1ccccc1)C(=O)O)C(=O)N1CCC[C@H]1C(=O)O [Enalaprilat Dihydrate]
fractional viability (2uM): 1.06
fractional viability (10uM): 1.07

O=C(Nc1cc(C(F)(F)F)cc(C(F)(F)F)c1)c1cc(Cl)ccc1O
fractional viability (2uM): 0.397
fractional viability (10uM): 0.308

CN(C)[C@@H]1C(O)=C(C(N)=O)C(=O)[C@@]2(O)C(O)=C3C(=O)c4c(O)cccc4[C@@](C)(O)[C@H]3C[C@@H]12 [Tetracycline HCl]
fractional viability (2uM): 1.57
fractional viability (10uM): 1.46

COC(=O)[C@H](c1ccccc1Cl)N1CCc2sccc2C1 [Clopidogrel]
fractional viability (2uM): 1.18
fractional viability (10uM): 1.04

COCCCC/C(=N\OCCN)c1ccc(C(F)(F)F)cc1 [Fluvoxamine maleate]
fractional viability (2uM): 1.33
fractional viability (10uM): 0.967

Cc1c(Cl)cccc1Nc1ccccc1C(=O)O [Tolfenamic Acid]
fractional viability (2uM): 1.05
fractional viability (10uM): 0.964

CCCSc1ccc2[nH]c(NC(=O)OC)nc2c1 [Albendazole]
fractional viability (2uM): 0.518
fractional viability (10uM): 0.413

CO[C@H]1/C=C/O[C@@]2(C)Oc3c(C)c(O)c4c(O)c(c(/C=N/N5CCN(C)CC5)c(O)c4c3C2=O)NC(=O)/C(C)=C\C=C\[C@H](C)[C@H](O)[C@@H](C)[C@@H](O)[C@@H](C)[C@H](OC(C)=O)[C@@H]1C [Rifampin]
fractional viability (2uM): 1.13
fractional viability (10uM): 1.05

CNC[C@@H](O)c1ccc(O)c(O)c1 [L-Adrenaline]
fractional viability (2uM): 0.849
fractional viability (10uM): 0.628

Cc1ccc(N(CC2=NCCN2)c2cccc(O)c2)cc1 [Phentolamine Mesylate]
fractional viability (2uM): 1.16
fractional viability (10uM): 1.01

CC(C)Nc1cc(-c2c[nH]c(C(=O)N[C@H](CO)c3cccc(Cl)c3)c2)c(Cl)cn1
fractional viability (2uM): 0.453
fractional viability (10uM): 0.36

CCc1ccc(CCOc2ccc(CC3SC(=O)NC3=O)cc2)nc1 (configuration not stated) [Pioglitazone]
fractional viability (2uM): 0.753
fractional viability (10uM): 0.719

CCc1ccc(CCOc2ccc(CC3SC(=O)NC3=O)cc2)nc1 (configuration not stated) [Pioglitazone HCl]
fractional viability (2uM): 0.939
fractional viability (10uM): 0.996

c1ccc(CC2=NCCN2)cc1 [Tolazoline HCl]
fractional viability (2uM): 0.978
fractional viability (10uM): 0.936

CC(C)(Oc1ccc(CCNC(=O)c2ccc(Cl)cc2)cc1)C(=O)O [Bezafibrate]
fractional viability (2uM): 1.04
fractional viability (10uM): 0.845

O=C(O)CCCc1c[nH]c2ccccc12 [3-Indolebutyric acid (IBA)]
fractional viability (2uM): 1.07
fractional viability (10uM): 0.965

O=C(c1cc(Cc2n[nH]c(=O)c3ccccc23)ccc1F)N1CCN(C(=O)C2CC2)CC1
fractional viability (2uM): 1.03
fractional viability (10uM): 0.936

O=C1c2ccccc2C(=O)C1c1ccccc1 [Phenindione]
fractional viability (2uM): 1.08
fractional viability (10uM): 0.844

O=C(O)CCc1nc(-c2ccccc2)c(-c2ccccc2)o1 [Oxaprozin]
fractional viability (2uM): 1
fractional viability (10uM): 0.923

CC[C@H]1OC(=O)[C@H](C)[C@@H](O[C@H]2C[C@@](C)(OC)[C@@H](O)[C@H](C)O2)[C@H](C)[C@@H](O[C@@H]2O[C@H](C)C[C@H](N(C)C)[C@H]2O)[C@](C)(O)C[C@@H](C)C(=O)[C@H](C)[C@@H](O)[C@]1(C)O [Erythromycin]
fractional viability (2uM): 1.08
fractional viability (10uM): 0.961

COc1ccc([C@@H]2CC(=O)c3c(O)cc(O)cc3O2)cc1O [Hesperetin]
fractional viability (2uM): 0.924
fractional viability (10uM): 1.12

Nc1c(CC(=O)O)cccc1C(=O)c1ccccc1 [Amfenac Sodium Monohydrate]
fractional viability (2uM): 1.04
fractional viability (10uM): 0.997

CC(C)(C)C(=O)Nc1ccc2c(c1)C(=O)C(=O)c1ccccc1-2
fractional viability (2uM): 0.181
fractional viability (10uM): 0.0604

NC(=O)c1ccc(N(C(N)=O)c2c(F)cccc2F)nc1-c1ccc(F)cc1F
fractional viability (2uM): 1.19
fractional viability (10uM): 1.05

CC(=O)Oc1ccccc1C(=O)Nc1ncc([N+](=O)[O-])s1 [Nitazoxanide]
fractional viability (2uM): 1.24
fractional viability (10uM): 0.682

CCCc1cc(C)[nH]c(=O)c1CNC(=O)c1cc(-c2ccc(N3CCN(C(C)C)CC3)nc2)cc2c1cnn2C(C)C
fractional viability (2uM): 0.975
fractional viability (10uM): 0.234

Cc1c(C(=O)Nc2ccc(Oc3ccnc4[nH]cc(-c5ccccc5)c34)c(F)c2)c(=O)n(-c2ccc(F)cc2)n1C
fractional viability (2uM): 0.85
fractional viability (10uM): 0.741

CN[C@@H](C)C(=O)N[C@H](C(=O)N1CCC[C@H]1c1nc(C(=O)c2ccc(F)cc2)cs1)C1CCCCC1
fractional viability (2uM): 0.719
fractional viability (10uM): 0.643

COc1nccc(-c2c(-c3ccc(F)cc3)ncn2C2CCC(O)CC2)n1 (configuration not stated)
fractional viability (2uM): 0.999
fractional viability (10uM): 0.786

From the supplement of paper PMC5919970
